# Reference: article PMC4336329 (PLoS ONE, 2015)
# The campaign covered roughly 310,000 compounds. About 2,200 (0.71%) showed an effect of 50% or more. The effect is printed as a negative number. Some of the results follow.
# Molecular target: human ether-à-go-go-related gene (hERG) potassium channel (human, UniProt Q12809)
# Assay: primary screen, population patch clamp on CHO cells stably expressing hERG
# human ether-à-go-go-related gene (hERG) potassium channel, sequence (Q12809 whole entry, looked up): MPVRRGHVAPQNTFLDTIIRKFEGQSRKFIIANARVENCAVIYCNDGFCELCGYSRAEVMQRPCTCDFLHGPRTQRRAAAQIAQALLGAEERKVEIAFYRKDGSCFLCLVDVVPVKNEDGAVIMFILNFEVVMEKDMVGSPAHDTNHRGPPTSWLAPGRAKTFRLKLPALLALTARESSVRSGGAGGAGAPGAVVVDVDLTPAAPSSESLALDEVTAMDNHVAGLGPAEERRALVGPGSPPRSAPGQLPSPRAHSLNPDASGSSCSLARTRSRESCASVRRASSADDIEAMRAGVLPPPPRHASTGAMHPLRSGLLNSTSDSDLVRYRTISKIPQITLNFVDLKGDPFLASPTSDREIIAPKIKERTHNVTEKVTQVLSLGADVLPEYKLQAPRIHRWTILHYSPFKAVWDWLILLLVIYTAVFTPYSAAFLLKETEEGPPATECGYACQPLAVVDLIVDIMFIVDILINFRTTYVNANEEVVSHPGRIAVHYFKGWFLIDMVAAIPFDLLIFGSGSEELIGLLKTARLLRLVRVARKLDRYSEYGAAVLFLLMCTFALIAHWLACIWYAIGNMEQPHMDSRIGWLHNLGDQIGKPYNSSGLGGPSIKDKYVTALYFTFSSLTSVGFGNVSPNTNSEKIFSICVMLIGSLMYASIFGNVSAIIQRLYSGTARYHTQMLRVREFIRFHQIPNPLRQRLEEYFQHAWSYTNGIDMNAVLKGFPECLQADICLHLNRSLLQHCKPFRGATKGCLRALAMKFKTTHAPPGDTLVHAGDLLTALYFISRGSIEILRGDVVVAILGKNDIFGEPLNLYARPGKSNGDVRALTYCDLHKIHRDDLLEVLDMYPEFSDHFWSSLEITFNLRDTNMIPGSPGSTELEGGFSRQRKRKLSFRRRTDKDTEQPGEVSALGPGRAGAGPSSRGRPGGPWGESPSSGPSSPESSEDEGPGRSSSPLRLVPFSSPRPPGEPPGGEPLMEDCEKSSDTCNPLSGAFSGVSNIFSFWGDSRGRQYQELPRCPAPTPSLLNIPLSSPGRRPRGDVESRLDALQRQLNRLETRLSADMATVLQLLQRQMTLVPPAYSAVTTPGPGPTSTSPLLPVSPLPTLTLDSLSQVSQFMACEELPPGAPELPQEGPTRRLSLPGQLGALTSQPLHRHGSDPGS
row,SMILES,"hERG current change (%, negative = inhibition) at 1uM [%]"
1,Cc1sc(N)c(C(=O)c2ccccc2)c1C,8.07
2,CCC(CC)C(=O)Nc1nnc(S(=O)(=O)N2c3ccccc3CC2C)s1 (centres unmarked),6.99
3,Cc1cc(OCC(=O)NC2CCN(Cc3ccccc3)CC2)c2c(C)cc(=O)oc2c1,-4.74
4,COCCNC(=O)Cn1cnc2sc(C)c(S(=O)(=O)N3CCN(c4ccccc4OC)CC3)c2c1=O,11.3
5,CCNC(=O)NS(=O)(=O)c1cnccc1Nc1cccc(Cl)c1,16.2
6,N#Cc1cc2cc3c(cc2nc1N1CCOCC1)OCO3,9.18
7,CCC(=NCCO)c1c(O)n(-c2ccc(Cl)cc2)c(=O)[nH]c1=O,19.4
8,O=[N+]([O-])c1cnccc1Nc1ccccc1,10.6
9,COc1ccccc1N1CCN(c2nc3ccccn3c(=O)c2C=O)CC1,7.81
10,O=C(NCCc1ccccc1)C1CCN(S(=O)(=O)N2CCCC2)CC1,14.9
11,CSc1nc(-c2ccc(N(C)C)cc2)c(C#N)c(=O)n1C,6.38
12,CCOc1cc(OCC)cc(C(=O)NCCCN2CCOCC2)c1,10.3
13,CC(=O)N1CCN(c2cc3c(cc2F)c(=O)c(C(=O)O)cn3C2CC2)CC1,5.39
14,COc1ccc(CNc2oc(Cc3cccc4ccccc34)nc2C#N)cc1,9.94
15,COc1ccccc1-c1nnc(NC(=O)c2ccc(S(=O)(=O)N(C)C)cc2)o1,-2
16,O=C(CSc1nnc(-c2cccnc2)o1)Oc1ccccc1,9.45
17,COc1ccccc1CNC(=O)c1nccnc1CO,12.8
18,N#CC1=C2SCC(O)(c3ccccc3)N2C(=O)CC1c1ccccc1F (centres unmarked),15.4
19,COCCC1CCCCN1Cc1cn(-c2ccccc2)nc1-c1ccc2c(c1)OCO2 (centres unmarked),3.35
20,CCc1cc(CNC(=O)CCc2nnc(CCCc3ccccc3)o2)on1,-10
21,CS(=O)(=O)c1ccc2c(c1)sc1nc(=O)c(/C=C3/C=CC(=O)C(O)=C3)c(N)n12,13
22,CC(C)c1ccc(-c2nn(-c3ccccc3)cc2C2C(C#N)=C(N)OC3=C2C(=O)CC(C)(C)C3)cc1 (centres unmarked),4.84
23,CC(=O)N1CC[n+]2c(-c3ccc(Cl)cc3Cl)csc21.[Br-],5.3

row,SMILES,"hERG current change (%, negative = inhibition) at 1uM [%]"
1,COc1cccc(-c2nc(N3CCN(c4ccccc4)CC3)c3ccccc3n2)c1O,7.23
2,CC(=O)Nc1ccc(SC[C@H](Cc2ccccc2)N2CCN(CC(C)C)CCC2=O)cc1,-2.78
3,C#CCOCCOCCOCCNc1nc(N2CCOCC2)nc(N2CCN(C(=O)[C@H](CCCCN)n3cc([C@@H](N)CC(C)C)nn3)CC2)n1.Cl,12.2
4,COc1ccc2[nH]c(C)c(CCN3C(=O)C4C5C=CC(C5)C4C3=O)c2c1 (centres unmarked),1.96
5,COc1ccccc1N(CC(=O)NCC1CCCO1)C(=O)CNS(=O)(=O)c1ccc(Cl)cc1 (centres unmarked),19.2
6,Cc1nc(NC(=O)/C=C/c2ccccc2)sc1C(=O)Nc1ccccc1,17.8
7,CCc1ccc(NC(=S)N(CCCN2CCOCC2)Cc2ccccn2)cc1,-15.3
8,O=C(c1cc(F)ccc1F)C1CCCN(Cc2cccc(Cl)c2)C1 (centres unmarked),8.46
9,CC(C)(C)C(=O)NC(=S)Nc1ccccc1F,-0.0863
10,O=S(=O)(Cc1nnnn1-c1ccc(Br)cc1)c1ccc(F)cc1,3.61
11,CSCCC(NC=C1C(=O)OC(C)(C)OC1=O)C(=O)O (centres unmarked),14.6
12,Cc1ccc(N2C(=O)CS(=O)(=O)CC2=O)cc1,18.6
13,COc1ccc(CCNC(=O)Cc2cccc(C(F)(F)F)c2)cc1OC,8.45
14,O=C1CC(c2ccccc2)Cc2nc3ncnn3cc21 (centres unmarked),9.74
15,CC(=O)N(c1ccccc1)C1CC(C)N(C(=O)c2ccccc2)c2ccccc21 (centres unmarked),10.2
16,CC(=O)Oc1ccc(C(=O)c2ccccc2)c(OC(C)=O)c1,2.13
17,Nc1ncnc(Nc2cc(C(F)(F)F)cc(C(F)(F)F)c2)n1,9.05
18,C=C1CCN(C(C(=O)OC)C(C)C)S(=O)(=O)c2ccccc21 (centres unmarked),16.3
19,FC(F)(F)c1nc2ncc(Cl)cc2[nH]1,0.811
20,COc1ccc(OC)c(CNn2c(-c3cccc(C)c3)nc3ccccc3c2=O)c1,14.7
21,COc1ccc(CCNC(=O)c2cc3ccccn3n2)c(OC)c1OC,7.21
22,C/C(=N\NC(=O)C(O)c1ccccc1)c1ccc(C)s1 (centres unmarked),14.8
23,Cc1cccc(NC(=S)N2CCC(NC(=O)C3CCCCC3)CC2)c1,13

row,SMILES,"hERG current change (%, negative = inhibition) at 1uM [%]"
1,COc1ccc(-c2nc(C3CCCCC3)c3cc(OC)ccc3n2)cc1,13.5
2,O=C(OC(C(=O)NC1CCCC1)c1ccccc1F)c1ccco1 (centres unmarked),7.24
3,Oc1ccccc1Cn1c(-c2ccccc2O)nc2ccccc21,10.2
4,C=C1c2cc3c(cc2NC(=S)N1Cc1ccccc1)OCO3,10.4
5,CC(C)n1c(=O)[nH]c2ccccc21,7.66
6,Cc1cccc(C(C)C)c1NC(=O)COC(=O)c1cc2ccccc2oc1=O,2.68
7,CCn1ccnc1CN(C)Cc1nc(-c2ccc3c(c2)OCO3)no1,9.48
8,CCOC(=O)c1csc(-c2ccc(OC)c(OC)c2)n1,12.6
9,COc1cc(Cl)c(S(=O)(=O)NCc2ccccn2)cc1Cl,7.04
10,O=C(NCCCN1CCCC1=O)c1ccc(NS(=O)(=O)c2cccc([N+](=O)[O-])c2)cc1,5.1
11,O=C(N/N=C/c1ccccc1OCc1ccccc1)c1cccs1,9.54
12,CSCCC(NC(=O)CCN1C(=O)c2ccccc2C1=O)C(=O)O (centres unmarked),10.4
13,CCc1cc(=O)oc2cc(OC(C)=O)cc(OC(C)=O)c12,12.1
14,COc1ccc(CNC(=O)CN(C(=O)c2ccc(CN3CCOCC3)o2)C2CCCC2)cc1,8.08
15,CCOc1ccc(S(=O)(=O)N2CCC(C(=O)NC3CCCC3)CC2)cc1,-0.932
16,Cc1ccc(C(=O)Nc2ccc(OCc3ccccc3)cc2)cc1[N+](=O)[O-],2
17,CC(C)(C)NC(=O)C1CCN(C(=O)c2ccc(-c3ccccc3)cc2)CC1,-1.66
18,COc1ccccc1-n1c(SCC(=O)O)nc2c(sc(=S)n2-c2ccc(C)c(C)c2)c1=O,15.4
19,CCC(=O)Nc1ccc(C(=O)NNC(=O)COc2cccc(C)c2)cc1,7.07
20,N#CNC(=Nc1ccc(Cl)cc1)Oc1ccccc1,3.34
21,COc1ccc(F)cc1C(=O)C1CCCN(C(=O)CSc2ccccn2)C1 (centres unmarked),-8.84
22,COc1cccc(NC2=CC(=O)CC(C)(C)C2)c1,7.94
23,COc1ccc(N(CC(=O)Nc2ccccc2C(=O)O)S(=O)(=O)c2ccc(C)c([N+](=O)[O-])c2)cc1,17.6

row,SMILES,"hERG current change (%, negative = inhibition) at 1uM [%]"
1,COc1ccc(C(=O)N/N=C/c2ccc(OC)c(COc3ccccc3)c2)cc1,-13.1
2,O=C(NCc1ccc(F)cc1F)Nc1cnccc1C(F)(F)F,14.7
3,CCOC(=O)COc1ccc(Br)cc1C1NC(=O)NC(C)=C1C(=O)NCc1ccccc1 (centres unmarked),-4.6
4,COCCn1c(SCC(=O)NCc2ccco2)nnc1-c1c[nH]c2ccccc12,16.6
5,O=C(CSc1nnc2ccc(-c3ccccc3)nn12)NCC1CCCO1 (centres unmarked),3.71
6,COc1cccc(-c2cccc(NC(=O)C3CCN(Cc4ccc(C)o4)CC3)c2)c1,-5.6
7,COc1ccccc1C(=O)NCC(=O)OCC(=O)c1ccc(Cl)s1,16.6
8,CC(C)n1cc(/C(N)=N/O)c(=O)n(Cc2ccccc2)c1=O,2.2
9,CC1CCOC2(O1)C(=O)N(CN1CCN(c3cccc(Cl)c3)CC1)c1ccccc12 (centres unmarked),11.9
10,Cc1cc(C(=O)N2CCCc3ccccc32)ccc1[N+](=O)[O-],4.58
11,CC1(C)CN=C(Nc2ccccc2C(F)(F)F)S1,13.4
12,CN1CCc2nc3sc(C(=O)NC(C)(C)C)c(N)c3cc2C1,14.1
13,Cc1c(C(=O)N2CCC(n3nccc3NC(=O)C3CC3)CC2)[nH]c2ccc(Cl)cc12,-4.79
14,CCOc1ccc(OCC)c(N=c2oc3c(C)ncc(CO)c3cc2C(N)=O)c1,6.58
15,Cc1ccc(NC(=O)CSc2nncs2)cc1Cl,14.5
16,N#Cc1ccc(CSc2nnc(NC(=O)c3ccc4ncsc4c3)s2)cc1,15.2
17,CC1=NN(c2ccc(C)c(C)c2)C(=O)/C1=C\C=C\c1ccc([N+](=O)[O-])o1,5.55
18,COCCCNC(=S)N/N=C/c1ccc(N(C)C)cc1Cl,8.94
19,CN(C)c1ccc(/C=N/NC(=O)c2ccccc2)cc1,13.3
20,Cc1ccc(N(CCC(=O)NC(C)(C)C)S(=O)(=O)c2ccc(C)cc2)cc1,4.09
